These are yes or no findings as the source states them, for the method shown. For part of these data: In cells and extracts the contact can be indirect. Some entries that bind do so weakly or less than the wild type.
What was measured:
[1] = target: FLAG-CIPK24 (recombinant, E. coli) (Arabidopsis thaliana) (UniProt Q9LDI3); test: pull-down; FLAG-CIPK proteins purified from E. coli on anti-FLAG agarose beads, incubated with microsomal proteins (100 µg) from Arabidopsis seedlings for 2 h at 4°C; immunoblot with anti-phot1, anti-phot2 and anti-FLAG; only the target purified
[2] = target: FLAG-CIPK1 (recombinant, E. coli) (Arabidopsis thaliana) (UniProt Q8RWC9); test: as above
[3] = target: FLAG-CIPK23 (recombinant, E. coli) (Arabidopsis thaliana) (UniProt Q93VD3); test: as above
[4] = target: CIPK23 fused to the N- or C-terminal half of YFP (BiFC) (Arabidopsis thaliana) (UniProt Q93VD3); test: split reporter; BiFC: nYFP and cYFP fusions (pSPYNE-35S, pSPYCE-35S) co-expressed via Agrobacterium in Nicotiana benthamiana leaf epidermal cells; confocal microscopy 2.5 days after infiltration
[5] = target: phot2 fused to the N- or C-terminal half of YFP (BiFC) (Arabidopsis thaliana) (UniProt P93025); test: as above
[6] = target: phot1 fused to the N- or C-terminal half of YFP (BiFC) (Arabidopsis thaliana) (UniProt O48963); test: as above
[7] = target: FLAG-tagged phototropin 2 (FLAG-phot2) (Arabidopsis thaliana) (UniProt P93025); test: AlphaScreen or HTRF; FLAG-phot1 or FLAG-phot2 (bait) on anti-IgG acceptor beads through anti-FLAG antibody, biotinylated protein (prey) on streptavidin-coated donor beads; 5 µl of each wheat germ synthesis mixture in 20 µl of 50 mM Tris-HCl pH 7.6, 100 mM potassium acetate, 10 mM MgCl2, 0.1 mM DTT, 1 mg/ml BSA; 23°C, 1 h
[8] = target: FLAG-tagged phototropin 1 (FLAG-phot1) (Arabidopsis thaliana) (UniProt O48963); test: as above

Amino acid sequences for entries named in this document (tags omitted).
UniProt Q9LDI3: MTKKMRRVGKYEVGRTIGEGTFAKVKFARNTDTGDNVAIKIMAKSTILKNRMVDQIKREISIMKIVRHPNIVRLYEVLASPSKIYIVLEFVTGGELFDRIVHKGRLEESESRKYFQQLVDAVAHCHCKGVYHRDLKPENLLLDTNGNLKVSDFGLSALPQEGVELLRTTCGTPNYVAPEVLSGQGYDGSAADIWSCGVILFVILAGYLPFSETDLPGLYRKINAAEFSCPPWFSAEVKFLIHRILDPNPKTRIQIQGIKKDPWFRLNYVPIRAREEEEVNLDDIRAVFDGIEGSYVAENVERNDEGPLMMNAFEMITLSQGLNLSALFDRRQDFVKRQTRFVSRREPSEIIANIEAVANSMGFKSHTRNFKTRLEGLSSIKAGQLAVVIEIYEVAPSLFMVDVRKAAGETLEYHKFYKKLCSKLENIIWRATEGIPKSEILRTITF
UniProt Q8RWC9: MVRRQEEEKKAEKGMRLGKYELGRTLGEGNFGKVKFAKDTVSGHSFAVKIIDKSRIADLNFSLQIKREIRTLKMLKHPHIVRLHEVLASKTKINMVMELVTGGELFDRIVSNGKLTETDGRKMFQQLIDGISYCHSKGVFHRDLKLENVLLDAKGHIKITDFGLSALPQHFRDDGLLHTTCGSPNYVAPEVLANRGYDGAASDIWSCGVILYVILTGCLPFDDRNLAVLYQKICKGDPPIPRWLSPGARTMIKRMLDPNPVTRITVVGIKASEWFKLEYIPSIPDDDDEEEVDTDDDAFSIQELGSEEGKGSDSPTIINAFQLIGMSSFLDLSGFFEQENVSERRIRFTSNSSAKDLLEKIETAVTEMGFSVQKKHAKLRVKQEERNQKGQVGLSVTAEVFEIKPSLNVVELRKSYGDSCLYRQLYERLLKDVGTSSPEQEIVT
UniProt Q93VD3: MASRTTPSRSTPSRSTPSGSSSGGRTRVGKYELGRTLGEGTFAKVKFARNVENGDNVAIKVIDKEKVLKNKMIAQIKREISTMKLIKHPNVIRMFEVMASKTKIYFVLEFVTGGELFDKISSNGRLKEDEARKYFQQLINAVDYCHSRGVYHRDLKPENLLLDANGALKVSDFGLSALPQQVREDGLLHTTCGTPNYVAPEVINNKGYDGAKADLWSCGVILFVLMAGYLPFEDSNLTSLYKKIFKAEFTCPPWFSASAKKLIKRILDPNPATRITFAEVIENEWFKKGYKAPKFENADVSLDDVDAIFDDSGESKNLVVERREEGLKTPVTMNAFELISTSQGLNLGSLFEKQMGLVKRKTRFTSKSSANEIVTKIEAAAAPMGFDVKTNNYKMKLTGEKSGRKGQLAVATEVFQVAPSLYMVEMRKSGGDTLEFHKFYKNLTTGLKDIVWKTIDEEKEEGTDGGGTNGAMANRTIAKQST
UniProt P93025: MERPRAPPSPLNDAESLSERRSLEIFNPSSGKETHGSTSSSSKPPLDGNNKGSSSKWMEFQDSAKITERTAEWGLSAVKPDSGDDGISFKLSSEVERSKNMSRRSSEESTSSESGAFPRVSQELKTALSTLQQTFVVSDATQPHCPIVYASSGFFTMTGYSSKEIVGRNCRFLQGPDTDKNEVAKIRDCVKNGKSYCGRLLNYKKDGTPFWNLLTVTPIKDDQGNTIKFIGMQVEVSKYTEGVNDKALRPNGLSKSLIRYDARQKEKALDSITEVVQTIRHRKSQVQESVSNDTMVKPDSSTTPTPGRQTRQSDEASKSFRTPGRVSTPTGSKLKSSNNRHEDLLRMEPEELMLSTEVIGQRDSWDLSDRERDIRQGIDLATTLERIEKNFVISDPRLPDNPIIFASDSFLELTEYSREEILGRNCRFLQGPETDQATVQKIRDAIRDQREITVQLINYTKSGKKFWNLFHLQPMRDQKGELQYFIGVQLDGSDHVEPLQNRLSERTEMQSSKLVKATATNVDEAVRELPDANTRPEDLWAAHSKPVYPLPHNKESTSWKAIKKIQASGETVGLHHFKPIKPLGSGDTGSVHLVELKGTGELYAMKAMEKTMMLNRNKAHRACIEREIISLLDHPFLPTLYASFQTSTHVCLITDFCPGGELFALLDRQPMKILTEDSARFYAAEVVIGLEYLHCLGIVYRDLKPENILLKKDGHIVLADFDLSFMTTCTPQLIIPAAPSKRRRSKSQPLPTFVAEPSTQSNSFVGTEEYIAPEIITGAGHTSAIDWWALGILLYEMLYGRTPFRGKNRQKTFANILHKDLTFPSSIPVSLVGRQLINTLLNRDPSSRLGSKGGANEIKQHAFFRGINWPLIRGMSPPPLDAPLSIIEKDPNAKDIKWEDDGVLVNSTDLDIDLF
UniProt O48963: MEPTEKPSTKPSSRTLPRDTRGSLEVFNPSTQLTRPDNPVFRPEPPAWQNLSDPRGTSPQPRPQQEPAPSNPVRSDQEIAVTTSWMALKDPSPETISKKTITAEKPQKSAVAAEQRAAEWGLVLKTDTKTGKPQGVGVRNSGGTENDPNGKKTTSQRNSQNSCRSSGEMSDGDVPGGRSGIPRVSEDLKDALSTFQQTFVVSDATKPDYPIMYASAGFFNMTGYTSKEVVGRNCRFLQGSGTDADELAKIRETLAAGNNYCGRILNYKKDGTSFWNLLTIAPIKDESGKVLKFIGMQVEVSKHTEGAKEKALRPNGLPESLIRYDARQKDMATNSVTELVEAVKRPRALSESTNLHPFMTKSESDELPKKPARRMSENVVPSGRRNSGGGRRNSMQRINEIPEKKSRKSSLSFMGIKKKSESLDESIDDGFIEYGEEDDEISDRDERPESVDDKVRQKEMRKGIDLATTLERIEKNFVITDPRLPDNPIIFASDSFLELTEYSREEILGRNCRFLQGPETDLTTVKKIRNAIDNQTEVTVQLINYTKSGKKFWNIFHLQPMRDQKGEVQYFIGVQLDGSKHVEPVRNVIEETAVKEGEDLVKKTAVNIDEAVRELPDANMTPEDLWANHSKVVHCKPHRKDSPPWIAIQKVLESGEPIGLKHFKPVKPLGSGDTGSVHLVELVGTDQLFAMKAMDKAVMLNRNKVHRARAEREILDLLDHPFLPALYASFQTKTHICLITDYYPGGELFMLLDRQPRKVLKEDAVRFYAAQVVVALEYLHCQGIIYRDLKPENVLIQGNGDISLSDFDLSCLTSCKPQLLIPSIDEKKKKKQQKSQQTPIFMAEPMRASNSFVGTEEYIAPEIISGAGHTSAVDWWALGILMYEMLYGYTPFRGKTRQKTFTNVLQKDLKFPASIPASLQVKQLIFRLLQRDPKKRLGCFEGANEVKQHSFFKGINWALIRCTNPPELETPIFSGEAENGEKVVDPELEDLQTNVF

## phototropin 2 (phot2), endogenous in Arabidopsis microsomal membranes (from UniProt P93025 1-915)
[1]
  binding: no binding
[2]
  binding: no binding
[3]
  binding: binds

## CIPK23 fused to the N- or C-terminal half of YFP (BiFC) (from UniProt Q93VD3 1-482)
[4]
  binding: binds
[5]
  binding: binds
[6]
  binding: binds

## CBL-interacting protein kinase 23 (CIPK23), biotin-labelled, from the Arabidopsis protein kinase library (from UniProt Q93VD3 1-482)
[7]
  binding: binds
[8]
  binding: binds

B1: NON-PHOTOTROPIC HYPOCOTYL 3 (NPH3) (protein, UniProt Q9FMF5 1-746)
chain: MMWESESDGGVGVGGGGGREYGDGVLSSNKHGGVKTDGFELRGQSWFVATDIPSDLLVKIGDMNFHLHKYPLLSRSGKMNRLIYESRDPDPTILILDDLPGGPEAFELASKFCYGVPVDLTATNISGLRCAAEYLEMTEDLEEGNLIFKTEAFLSYVVLSSWRDSILVLKSCEKLSPWAENLQIVRRCSESIAWKACSNPKGIRWAYTGKAPSPSTTNFAGSSPRWNESKDSSFYCSPSRNTNSQPVPPDWWFEDVSILRIDHFVRVITAIKVKGMRFELLGAVIMHYAGKWLPGLIKEGGVAIAPAMSSAIGGGLGLGGDEMSISCGSNSSGGSSGPDWKGGLHMVLSAGKTNGHQDSVACLAGLGISPKDQRMIVESLISIIPPQKDSVTCSFLLRLLRAANMLKVAPALITELEKRVGMQFEQATLQDLLIPGYNNKGETMYDVDLVQRLLEHFLVQEQTEGSSPSRMSPSPSQSMYADIPRGNNNNGGGGGGNNQNAKMRVARLVDSYLTEVARDRNLPLTKFQVLAEALPESARTCDDGLYRAIDSYLKAHPTLSEHERKRLCRVMDCQKLSMDACMHAAQNERLPLRVVVQVLFSEQVKISNALANTSLKESTTLGEAMGTYQPMIPNRKTLIEATPQSFQEGWAAAKKDINTLKFELETVKTKYVELQNEMEVMQRQFEKTGKVKNTPSSSAWTSGWKKLSKLTKMSGQESHDISSGGEQAGVDHPPPRKPRRWRNSIS
[8]
  binding: binds

Source: article PMC7693358
